PubChem BioAssay AID720536 (National Center for Advancing Translational Sciences (NCATS), 2013)
Out of some 1,600 compounds screened, about 650 (41%) were called active. So high a share suggests a set chosen from earlier hits. The shares of active, inactive and inconclusive entries below differ from those in the screen. Calls come from the whole dose curve; as a rule, active = well fitted inhibition curve with a large enough effect; inconclusive = small, poorly fitted or top-dose-only effect; inactive = no such curve, though single readings can be large or run the other way. No potency is given beside an inconclusive call; the fits are too rough.

assay: qHTS for Inhibitors of TGF-b: CCL64 Cells Orthogonal Assay for Cherry Picks; details: CCL64 CAGA-GFP reporter, TGF-b stimulated, GFP fluorescence, 18 h; series mostly up to 46.1 µM; note: nearly all actives have a fitted effect of over 65% in size
Procedure, shortened: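 Readout was total-well GFP fluorescence from summed single-cell values after 18 h TGF-beta stimulation (500 pg/mL) of CCL64 CAGA-GFP cells in 1% FBS, compounds added 2 h after plating. Normalized to unstimulated and stimulated-DMSO wells; curves classified by fit quality and efficacy.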
Potency is the fitted concentration of half-maximal effect; tags give direction and shape of the fitted curve.

Compound | Potency
CCOC(=O)C1CCCN(C(=O)Cc2ccc(C)cc2)C1 (stereo not given) | inactive
Cc1ccc(-n2c(SCC(N)=O)nc3c(c2=O)C2(CCCC2)Cc2ccccc2-3)cc1 | inconclusive [inhibitor, single point]
O=C(COc1ccc(C(=O)c2ccccc2)cc1)NCc1ccc(F)cc1 | inconclusive [inhibitor, partial curve]
CCCCc1ccc(NC(=O)CN(C)CC(=O)Nc2ccccc2Cl)cc1 | inconclusive [inhibitor, single point]
NC1=NC[C@@H](Cc2ccc(O)cc2)N1CCC12CC3CC(CC(C3)C1)C2 | inactive
CC(=NNc1nc2ccccc2o1)c1cc2ccccc2cn1 | inconclusive [inhibitor, partial curve, poor fit]
CCCc1cc2c(cc1NC(=O)c1ccco1)OCO2 | inactive
O=C(Nc1cccc(C(F)(F)F)c1)C1Cc2c(-c3ccc(Cl)cc3)ccnc2O1 (stereo not given) | inconclusive [inhibitor, single point]
CC[C@@H](CC1CCCCC1)C(=O)N(Cc1ccccc1)c1ccccc1 | inconclusive [inhibitor, single point]
CC(=O)N1CCc2c(sc(NC(=O)c3ccc([N+](=O)[O-])o3)c2C(N)=O)C1 | inconclusive [inhibitor, single point]
Brc1cc(Br)c2ncnc(N3CCCCC3)c2c1 | inconclusive [inhibitor, single point]
C[C@@H]1CN([C@H](C)CO)C(=O)c2cc(NC(=O)Cc3ccccc3)ccc2O[C@H]1CN(C)Cc1ccc(Oc2ccccc2)cc1 | active: 16.4 µM
Cc1c(C(=O)Nc2nonc2-c2ccc(F)cc2)oc2ccc(F)cc12 | inconclusive [inhibitor, single point]
O=C(CSc1n[nH]c(-c2ccncc2)n1)Nc1ccccn1 | inconclusive [inhibitor, partial curve]
Cc1ccc2c(c1)nnn2C1CCN(CC(=O)Nc2ccccc2N2CCOCC2)CC1 | inconclusive [inhibitor, single point]
COc1ccc(-c2csc(NC3OC(=O)c4ccccc43)n2)cc1 (stereo not given) | active: 11.6 µM
Oc1c(Cl)cc(CN2CCOCC2)c2cccnc12 | inconclusive [inhibitor, full curve]
Cn1cc(-c2cnc3c(NC=O)cc(-c4cccc(C(F)(F)F)c4)cn23)cn1 | inconclusive [inhibitor, single point]
Cc1nc(N2N=C3/C(=C/c4ccc(F)cc4)CCCC3C2c2ccc(F)cc2)sc1C(=O)N(C)C (stereo not given) | inconclusive [inhibitor, single point]
O=C1NC(Cc2ccc(O)cc2)c2nc3ccc(Cl)cc3c(=O)n2-c2cc3ccccc3cc21 (stereo not given) | active: 5.8 µM
CC(C)C[C@H]1CN=C(Nc2ccccc2)N1CCc1ccc(F)cc1 | active: 18.4 µM
O=C(Cc1csc(NC(=O)Nc2ccc(Cl)cc2)n1)NC1CCCC1 | inconclusive [inhibitor, single point]
O=S(=O)(c1cccc(NC(=S)N2CCN(c3ccccc3F)CC2)c1)C(F)F | inactive

Compound | Potency
Cc1ccc(S(=O)(=O)N(CC(=O)Nc2ccc(Cl)c([N+](=O)[O-])c2)C2CCCCC2)cc1 | inconclusive [inhibitor, single point]
O=S1(=O)[C@H]2CC3O[C@]2(C[C@@H]3c2ccc(F)cc2)CN1Cc1ccc(Cl)cc1 | inactive
COc1ccc(/C=C2/CCCC(CN(C)C)C2=O)cc1 (stereo not given) | active: 4.11 µM
Cc1cccc(C)c1OCC(=O)Nc1oc(-c2ccccc2)c(-c2ccccc2)c1C#N | inconclusive [inhibitor, single point]
N#Cc1ccc(NC(=O)Nc2ccc(Oc3ccc(NC(=O)Nc4ccc(C#N)cc4)cc3)cc2)cc1 | inactive
Cc1cc(C)c(S(=O)(=O)NC2CC3CCC2C3)c(C)c1 (stereo not given) | inactive
NC(Cc1ccc(F)cc1)c1csc(Nc2ccc(C(F)(F)F)cn2)n1 (stereo not given) | inconclusive [inhibitor, single point]
CCc1ccc(OCC(=O)Nc2ccc(-c3cc4ccccc4oc3=O)c(OC)c2)cc1 | inactive
CC[C@]12c3[nH]c4ccc(Cl)cc4c3CCN1C(=O)[C@@H](CC(=O)NC/C=C(\C)CCC=C(C)C)C[C@@H]2C(=O)N1CCN(C(=O)C2CC2)CC1 | active: 20.6 µM
COc1ccc(Cl)cc1NC(=O)CN1c2ccccc2CC1C (stereo not given) | inconclusive [inhibitor, single point]
COc1cccc(-c2nc(N3CCCCC3)c3ccccc3n2)c1O | inconclusive [inhibitor, partial curve, poor fit]
Oc1c(C(c2ccccn2)N2CCCCC2)cc(Cl)c2cccnc12 (stereo not given) | inconclusive [inhibitor, partial curve]
O=C(c1ccc(Cl)cc1)C(CN1CCCC1)c1ccccc1 (stereo not given) | active: 2.59 µM
CC(NC(=O)C1CCCN1S(=O)(=O)c1ccccc1)c1ccccc1 (stereo not given) | inactive
NC1=NC[C@H](Cc2ccc(O)cc2)N1CCc1cc(C(F)(F)F)cc(C(F)(F)F)c1 | inactive
Cc1cccc(C)c1NC(=O)CCCSc1nnc(-c2ccc(F)cc2)n1-c1ccccc1 | inconclusive [inhibitor, single point]
Cc1ccc2nc(SCC(=O)Nc3cc(C(F)(F)F)ccc3N3CCOCC3)[nH]c2c1 | active: 0.731 µM
CCCCCCOc1ccc(N2C(=O)CC(N(CCc3ccc(S(N)(=O)=O)cc3)C(C)=O)C2=O)cc1 (stereo not given) | inactive
CC(=NNC(=S)N1CCCC1)c1ccccn1 | inconclusive [inhibitor, partial curve, poor fit]
COc1cc(NC(=O)N2CCc3nc(Nc4cc(Cl)cc(Cl)c4)ncc3C2)cc(OC)c1OC | active: 7.31 µM
Cc1ccc(OCCNC(=O)/C=C/c2ccc([N+](=O)[O-])cc2)cc1C | inactive
CCOc1ccc(S(=O)(=O)N2CCN(C(=S)NCc3ccco3)CC2)cc1 | inconclusive [inhibitor, single point]
